Consider 24 molecules from PMC4336329 (PLoS ONE, 2015).

Structures are written as SMILES. The campaign covered roughly 310,000 compounds. About 14,000 (4.5%) showed an effect of 50% or more. Effects have a minus sign here. The list shows a part of the results.
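Note: peak tail current of the secondary pulse compared with the same well before compound.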

The target of this experiment is human ether-à-go-go-related gene (hERG) potassium channel (human, UniProt Q12809). Put plainly: primary screen, population patch clamp on CHO cells stably expressing hERG.
Chain of human ether-à-go-go-related gene (hERG) potassium channel (Q12809 whole entry, looked up): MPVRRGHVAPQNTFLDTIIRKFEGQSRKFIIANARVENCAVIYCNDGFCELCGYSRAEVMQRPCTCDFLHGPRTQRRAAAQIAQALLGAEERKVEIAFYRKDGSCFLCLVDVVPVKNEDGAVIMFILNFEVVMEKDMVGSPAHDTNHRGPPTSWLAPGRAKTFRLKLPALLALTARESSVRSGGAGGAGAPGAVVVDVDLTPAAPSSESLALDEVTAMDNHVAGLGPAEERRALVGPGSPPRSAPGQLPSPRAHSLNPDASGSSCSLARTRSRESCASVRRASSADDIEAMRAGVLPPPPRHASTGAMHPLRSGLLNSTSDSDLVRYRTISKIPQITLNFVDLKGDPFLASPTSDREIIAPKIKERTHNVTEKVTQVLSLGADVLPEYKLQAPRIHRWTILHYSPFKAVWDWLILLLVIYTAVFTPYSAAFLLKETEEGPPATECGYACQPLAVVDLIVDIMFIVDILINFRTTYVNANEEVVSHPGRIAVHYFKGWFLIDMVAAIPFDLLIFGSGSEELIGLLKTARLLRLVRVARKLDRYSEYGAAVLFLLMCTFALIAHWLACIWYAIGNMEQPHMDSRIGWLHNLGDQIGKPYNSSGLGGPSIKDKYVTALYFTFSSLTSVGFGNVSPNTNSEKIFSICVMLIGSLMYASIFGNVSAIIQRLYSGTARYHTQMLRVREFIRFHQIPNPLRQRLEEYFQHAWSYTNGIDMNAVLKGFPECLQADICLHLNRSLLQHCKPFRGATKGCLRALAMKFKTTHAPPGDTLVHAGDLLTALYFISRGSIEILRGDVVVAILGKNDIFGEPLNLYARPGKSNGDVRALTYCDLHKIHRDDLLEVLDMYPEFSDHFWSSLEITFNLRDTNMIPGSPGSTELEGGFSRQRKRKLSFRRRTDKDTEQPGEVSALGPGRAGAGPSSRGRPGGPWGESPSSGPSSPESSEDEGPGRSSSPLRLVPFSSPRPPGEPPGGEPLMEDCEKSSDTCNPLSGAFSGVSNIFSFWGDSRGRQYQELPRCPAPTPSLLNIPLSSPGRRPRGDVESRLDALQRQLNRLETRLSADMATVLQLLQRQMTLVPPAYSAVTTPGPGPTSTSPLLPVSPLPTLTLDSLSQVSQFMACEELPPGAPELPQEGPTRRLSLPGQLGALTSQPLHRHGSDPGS
For `Cc1cccc(NC(=O)CCc2ccccc2)c1C`, the “hERG current change (%, negative = inhibition) at 10uM” value was determined as 20.7%.

For `O=c1c2c(-c3cccc([N+](=O)[O-])c3)ccnc2[nH]n1-c1ccccc1`, the “hERG current change (%, negative = inhibition) at 10uM” value is recorded as 10%.

With `CSc1cccc(NC(=S)N(Cc2ccccc2)Cc2cccnc2)c1`, the “hERG current change (%, negative = inhibition) at 10uM” value is -11.3%.

With `COCCNC(=O)c1ccc(CN2CCOCC2)cc1`, the “hERG current change (%, negative = inhibition) at 10uM” value was 4.88%.

As to `Cc1nc2c(ncn2-c2ccccc2)c(=O)n1NC(=O)CN1CCCC1`, the “hERG current change (%, negative = inhibition) at 10uM” value came out at 5.89%.

Take `N#CCOC(=O)[C@H](Cc1c[nH]c2ccccc12)NS(=O)(=O)c1ccc(Cl)cc1`: the “hERG current change (%, negative = inhibition) at 10uM” value is recorded as 7.37%.

As for `Cc1cc(C)cc(C(=O)NC(CC(N)=O)c2ccc(N3CCC(Br)CC3)c([N+](=O)[O-])c2)c1` (stereo not drawn), the “hERG current change (%, negative = inhibition) at 10uM” value is recorded as -16.1%.

For `Cc1ccc(-c2cnn(-c3cccc([N+](=O)[O-])c3)c2N)cc1`, the “hERG current change (%, negative = inhibition) at 10uM” value is -24.1%.

With `COc1ccc(CN2C(=O)NC(C)(c3ccc(C)cc3)C2=O)cc1F` (stereo not drawn), the “hERG current change (%, negative = inhibition) at 10uM” value is -14.2%.

`Fc1ccc(C2=CC(c3ccco3)n3nnnc3N2)cc1` (stereo not drawn): the “hERG current change (%, negative = inhibition) at 10uM” value is reported as -6.76%.

For the molecule `CC(=O)NC1(C(F)(F)F)NC(=O)N(c2ccc(F)cc2)C1=O` (stereo not drawn), the “hERG current change (%, negative = inhibition) at 10uM” value is on record as 16%.

Turning to `CCc1ccc(-n2c(CSc3nnnn3-c3ccccc3)nc3ccccc3c2=O)cc1`, the “hERG current change (%, negative = inhibition) at 10uM” value is recorded as -1.24%.

As for `CC(=O)Nc1c(C)cc(OCC(=O)O)cc1C`, the “hERG current change (%, negative = inhibition) at 10uM” value is -6.51%.

In the case of `O=[N+]([O-])c1ccc(CN2CCN(c3ccc(Cl)cc3)CC2)o1`, the “hERG current change (%, negative = inhibition) at 10uM” value is listed as -2.29%.

As to `CC(=O)OC1(c2ccccc2)CCN(C)C2CCCCC21.Cl` (stereo not drawn), the “hERG current change (%, negative = inhibition) at 10uM” value is -0.508%.

Regarding `Cc1nn(CC(=O)NCc2cccs2)c(=O)c2nn(-c3ccccc3)c(C)c12`, the “hERG current change (%, negative = inhibition) at 10uM” value was determined as 1.96%.

`CCCCOc1ccc(-c2nnc(-c3ccco3)o2)cc1`: the “hERG current change (%, negative = inhibition) at 10uM” value is given as -1.67%.

On to `COc1ccccc1-c1nc(S(=O)(=O)c2ccccc2)c(N2CCCCC2)o1`, for which the “hERG current change (%, negative = inhibition) at 10uM” value was 14.4%.

Regarding `O=[N+]([O-])c1cc(S(=O)(=O)N2CCCCC2)ccc1NCCN1CCOCC1`, the “hERG current change (%, negative = inhibition) at 10uM” value is recorded as -11.4%.

With `CC1C/C(=C/c2ccncc2)C(=O)/C(=C/c2ccncc2)C1` (stereo not drawn), the “hERG current change (%, negative = inhibition) at 10uM” value is recorded as -41.9%.

With `CC(C)[C@H](Nc1nc(-c2ccccc2)nc2c1oc1ccccc12)C(=O)O.Cl`, the “hERG current change (%, negative = inhibition) at 10uM” value is 22%.

For the molecule `COc1cc2c(=O)n(CC3CCCO3)c(=O)n(CC(=O)Nc3ccc(F)cc3F)c2cc1OC` (stereo not drawn), the “hERG current change (%, negative = inhibition) at 10uM” value was -10.3%.

For the molecule `O=C(O)c1cccc(S(=O)(=O)NCCC(c2ccccc2)c2ccccc2)c1`, the “hERG current change (%, negative = inhibition) at 10uM” value came to 22.1%.

In the case of `O=C(c1ccc(F)cc1)C(C(=O)N1CCCCC1)n1ccccc1=O` (stereo not drawn), the “hERG current change (%, negative = inhibition) at 10uM” value stood at 15.9%.
